Among all 1,200 compounds or so, about 210 (18%) were called active. No stated cut-off is given here; in the data, active means inhibition above about 30%; inactive means the rest. Only a part is listed here, and it is no random draw.

A word on the inhibition: it is the change of the read-out against control, counted positive when it falls.

The nature of this assay: HTRF signal interference by compounds, confirmation, artefact control for SUMOylation inhibitor project, biochemical, uHTS (AID 2069). The settings on record: HTRF interference counterscreen, fluorescence, at 35 µM, stronger effect = higher value.
As for `CCN(CC)C(=O)c1sc2nc(-c3ccncc3)[nH]c(=O)c2c1C`, the inhibition was active: 47.2%.

Take `COc1cc(NC(=O)c2cncc(-c3ccc(C#N)cc3)c2)cc(C(=O)Nc2cccc(C(F)(F)F)c2)c1`: the inhibition was inactive: 10.9%.

On to `O=C(Nc1ccc2oc(-c3ccc4ccccc4c3)nc2c1)c1ccc2c(c1)OCCO2`, for which the inhibition was inactive: 8.15%.

`NCCc1ccc(O)c(O)c1`: the inhibition was inactive: -9.25%.

Regarding `CN(C(=O)CSc1nnc(NCc2ccccc2)s1)C1CCS(=O)(=O)C1` (configuration not stated), the inhibition was inactive: -3.15%.

For the molecule `COc1ccc2c(c1)c(=O)oc1c(C)c(OCc3ccc(C(=O)O)cc3)ccc12`, the inhibition is active: 31.4%.

With `C(=N\C(/N=C/c1ccco1)c1ccco1)/c1ccco1`, the inhibition was inactive: 7.4%.

As for `CC(=O)Nc1ccc(-c2nc3ccc(NC(C)=O)cc3o2)cc1`, the inhibition was active: 40.8%.

`O=C(N/N=C/c1ccc(O)c(O)c1)N/N=C/c1ccc(O)c(O)c1`: the inhibition is inactive: 11.1%.

For the molecule `Cc1ccc(NC(=S)Nc2cccc3cnccc23)cc1C`, the inhibition is inactive: -9.75%.

`Cc1[nH][nH]c(=O)c1C(c1ccc(-c2ccc(Cl)c(Cl)c2)o1)c1c(C)[nH][nH]c1=O`: the inhibition was inactive: -44.4%.

Turning to `COc1ccccc1C1Nc2cccc3cccc(c23)N1`, the inhibition was inactive: -18.4%.

Consider `Cc1nc2c3cc(F)ccc3n(Cc3ccc(F)cc3)c2s1`, for which the inhibition was inactive: -4.4%.

For the molecule `Oc1cccc2c(NC(=S)Nc3ccc(SC(F)F)cc3)cccc12`, the inhibition is inactive: -6.1%.

For the molecule `S=c1[nH]nc(-c2ccccc2Cl)n1/N=C/C=C/c1ccco1`, the inhibition is inactive: -12.8%.

On to `Cc1ccc(C)n1-c1nccc(-c2cccs2)n1`, for which the inhibition was inactive: 10.5%.

`O=C(NNc1cc(N2CCCC2)nc(N2CCCC2)n1)c1ccc([N+](=O)[O-])cc1`: the inhibition is inactive: -2.1%.

Turning to `Cc1cc(C)c(C(N)=O)c(Nc2cccc3ccccc23)n1`, the inhibition was inactive: 0.7%.

For `CCN(CC)c1cc(Cl)c2nonc2c1N`, the inhibition is inactive: -13.9%.

With `COc1ccccc1Oc1c(C)oc2c(CN3CCN(C)CC3)c(O)ccc2c1=O`, the inhibition is active: 30.4%.

Consider `O=C(CNc1cccc2ccccc12)N/N=C/c1ccc([N+](=O)[O-])o1`, for which the inhibition was inactive: 1.3%.

As to `CC1(C)CC(=O)C2=C(C1)Nc1[nH]c(=S)[nH]c(=O)c1C2c1ccccc1` (configuration not stated), the inhibition is inactive: 5.95%.

As to `CN(C)S(=O)(=O)c1cccc(-c2nn(-c3ccccc3)cc2/C=C2\SC(=S)NC2=O)c1`, the inhibition was inactive: -4%.

For the molecule `CC(=O)Nc1ccc2nc3ccccc3nc2c1`, the inhibition is active: 36.7%.

On to `Cc1c(C)c2cc(Cl)c(O)c(CN3CCN(C)CC3)c2oc1=O`, for which the inhibition is active: 30.6%.

As for `O=C(N/N=C/c1cc(Br)cc(Br)c1O)c1ccncc1`, the inhibition was inactive: 12.4%.

`Cc1ccc(-c2cc(C(=O)N/N=C/c3ccc([N+](=O)[O-])o3)c3ccccc3n2)o1`: the inhibition was inactive: -0.25%.

As for `Nc1ccc2oc(-c3cccs3)nc2c1`, the inhibition is active: 37.1%.

On to `Nc1ccc(N(CCO)CCO)cc1`, for which the inhibition was inactive: -18.9%.

As for `CCN(CC)CCNS(=O)(=O)c1ccc2c3c(cccc13)C(=O)N2`, the inhibition is active: 47.2%.

Consider `COCCN(CCOC)S(=O)(=O)c1ccc(C(=O)Nc2nc3c(s2)CCc2ccccc2-3)cc1`, for which the inhibition is active: 36.7%.

Regarding `S=c1[nH]nc(-c2cc(-c3ccccc3)n[nH]2)n1/N=C/c1ccc(Cl)c(Cl)c1`, the inhibition is inactive: -4.5%.

Consider `Oc1ccc(/C=N/Nc2cc(N3CCCC3)nc(N3CCCC3)n2)cc1O`, for which the inhibition was active: 42.8%.

In the case of `CC1CCN(CCCn2c(=S)[nH]c3ccc(N4CCOCC4)cc3c2=O)CC1`, the inhibition was active: 52.3%.

As for `O=C1S/C(=C\C=C\c2ccco2)C(=O)N1c1ccc(O)cc1`, the inhibition is inactive: -7.05%.

As to `O=[N+]([O-])c1ccc(Cl)c(C2Nc3cccc4cccc(c34)N2)c1`, the inhibition is inactive: -20.5%.

As to `Cc1ccc(S(=O)(=O)c2cc3c(=O)n4ccccc4nc3n(Cc3ccco3)c2=N)cc1C`, the inhibition is inactive: 9.75%.

`Cc1ccc2cc(C(c3nnnn3C(C)(C)C)N3CCCCCC3)c(=O)[nH]c2c1` (configuration not stated): the inhibition is inactive: 14.6%.

For the molecule `Nc1c(Cl)cc(NC(=O)c2ccccc2C(=O)O)cc1Br`, the inhibition is inactive: -2.95%.

On to `c1coc(-c2nnc(-c3ccco3)nn2)c1`, for which the inhibition is inactive: 7.95%.

In the case of `CC(C)(C)C(=O)NC(Nc1cccc2cccnc12)C(Cl)(Cl)Cl` (configuration not stated), the inhibition was inactive: -3.75%.

Consider `Cc1[nH][nH]c(=O)c1C(c1ccc(-c2ccc(Cl)c(C(=O)O)c2)o1)c1c(C)[nH][nH]c1=O`, for which the inhibition is inactive: 8%.

With `O=c1[nH]nc(CNc2ccc(O)cc2)c2ccccc12`, the inhibition is inactive: -8.45%.

Consider `Cc1n[nH]c(=S)n(NC(=O)/C=C/C(=O)Nn2c(=S)[nH]nc(C)c2=O)c1=O`, for which the inhibition was active: 51.5%.

Regarding `O=C(c1cccc2cccc(O)c12)N1CCCCC1`, the inhibition was inactive: -3.85%.

In the case of `Cc1c(CC(=O)O)c(=O)oc2c(C)c(OCc3ccccc3Br)ccc12`, the inhibition was inactive: -1.95%.

As for `NS(=O)(=O)c1cnccc1Nc1ccc(Cl)cc1`, the inhibition is inactive: -1.95%.

Turning to `Cc1[nH][nH]c(=O)c1C(c1ccc(-c2cccc(Cl)c2)o1)c1c(C)[nH][nH]c1=O`, the inhibition is inactive: -29.4%.

In the case of `COc1ccc(S(=O)(=O)Nc2ccc(O)c3ccccc23)cc1`, the inhibition is inactive: -2.65%.

As for `CN1c2ccccc2C(C)(C)C12C=Nc1c(cc(N3CCOCC3)c3ccccc13)O2` (configuration not stated), the inhibition was inactive: 9.7%.

As for `CC(=O)N(C1=C(Cl)C(=O)c2ccccc2C1=O)c1ccc(C(=O)O)cc1`, the inhibition is inactive: 8.95%.

On to `CC(=O)NC(=S)Nc1ccc(NC(=S)NC(=O)/C=C/c2ccco2)cc1`, for which the inhibition was inactive: -10.8%.

In the case of `COc1ccc(NC(=O)N2c3ccc(OC)cc3C(C)=CC2(C)C)cc1`, the inhibition is inactive: 3.25%.

Regarding `O=c1c2cc(N3CCOCC3)ccc2[nH]c(=S)n1Cc1ccccn1`, the inhibition is active: 56.3%.

As to `O=[N+]([O-])c1cc(Cl)cc(/C=N/NC(=S)Nc2ccc(S(=O)(=O)N3CCOCC3)cc2)c1O`, the inhibition was active: 80.5%.

In the case of `CCCCn1c(NC(=O)c2ccc(Br)o2)c(S(=O)(=O)c2ccccc2)c2nc3ccccc3nc21`, the inhibition is inactive: 1.65%.

Consider `COc1ccc(-c2nc3ccncc3[nH]2)cc1OC`, for which the inhibition is active: 46.5%.

Consider `O=C(O)CN1C(=O)/C(=C/c2ccc(SCc3ccccc3)o2)SC1=S`, for which the inhibition was inactive: 8.35%.

Turning to `Cc1c(O)ccc2c(CC(=O)N[C@@H](Cc3ccc(O)cc3)C(=O)O)cc(=O)oc12`, the inhibition was active: 39.9%.

For the molecule `N#Cc1c(-c2cccc(Br)c2)cc(-c2ccco2)[nH]c1=O`, the inhibition is active: 31.6%.

Take `O=[N+]([O-])c1c(NCCCO)cc(Sc2ccc(Cl)cc2)c2nonc12`: the inhibition was inactive: -10.6%.

As for `Cc1ccc(Sc2cc(NCCCO)c([N+](=O)[O-])c3nonc23)cc1`, the inhibition was inactive: 0.15%.

On to `Cc1nnc(Sc2cc(NCCO)c([N+](=O)[O-])c3nonc23)s1`, for which the inhibition was inactive: 4.05%.

For `CN(c1ccccc1)c1ccc(/C=C(\CCC(=O)O)c2nc3ccccc3s2)cc1[N+](=O)[O-]`, the inhibition was inactive: 7.85%.

`Cc1cccc(S(=O)(=O)C(C#N)c2nc3ccccc3nc2N2CC(C)OC(C)C2)c1` (configuration not stated): the inhibition is inactive: 9.45%.

Turning to `CC(C)(C)OC(=O)c1c(N)n(CCCN2CCCC2=O)c2nc3ccccc3nc12`, the inhibition is active: 41.4%.

Consider `O=C(CSc1ncccn1)NCc1ccc2c(c1)OCO2`, for which the inhibition is inactive: -2.65%.

Take `CC(=O)OCCCNc1cc(SCc2ccco2)c2nonc2c1[N+](=O)[O-]`: the inhibition was inactive: -4.35%.

As to `Cc1c(C(=O)c2ccc(F)cc2F)c2ccccn2c1CCC#N`, the inhibition is inactive: 17.8%.

Regarding `Cc1cccc(C(=O)O)c1NC(=O)c1ccc(F)cc1`, the inhibition is inactive: -7.25%.

Turning to `N#CCCN(Cc1cccnc1)C(=S)NC1CC2C=CC1C2` (configuration not stated), the inhibition was inactive: -9.75%.

Turning to `O=C(Nc1ccc2nc3ccccc3nc2c1)c1ccc(Br)cc1`, the inhibition is inactive: 20.6%.

Turning to `CC(C)c1ccccc1NC(=O)COc1ccc(C(=O)NCCc2ccccc2)cc1`, the inhibition was inactive: -3.35%.

As to `Fc1ccc(NC(=S)Nc2ccc3nccnc3c2)cc1`, the inhibition was inactive: 7.9%.

For `COc1ccc(CN2C(=O)Cc3c2nc(N)c2c(N)nc(N4CCOCC4)c(C#N)c32)cc1`, the inhibition is active: 42.5%.

Take `COc1ccc2c(c1)-c1nc(/N=C/c3ccc(O)cc3)sc1CC2`: the inhibition is inactive: -9.7%.

In the case of `Cc1ccc(NC(=O)Nc2cccn(Cc3c(F)cccc3Cl)c2=O)cc1`, the inhibition is inactive: 3.65%.

As to `Cc1cc(N2C(=O)c3ccc(C(=O)Nc4ccc(O)cc4C(=O)O)cc3C2=O)no1`, the inhibition was inactive: -3.45%.

As for `COC1=C(Nc2ccc(O)cc2)C(=O)c2ccccc2C1=O`, the inhibition was inactive: -45.3%.

Consider `COc1ccc(-c2ccnc3nc(/N=C/N(C)C)nn23)cc1`, for which the inhibition is active: 44.7%.

For the molecule `CNS(=O)(=O)c1ccc2nc(NC(=O)/C=C/c3ccco3)sc2c1`, the inhibition was inactive: 25.6%.

As to `O=C(NC(=S)Nc1cccc2c(O)cccc12)c1cccc(Br)c1`, the inhibition was inactive: 17.4%.

`CCOc1c(Br)cc(/C=C2\C(=O)N(CCC#N)N=C2C)cc1OC`: the inhibition is inactive: -4.9%.

As to `CCCCCCC#Cc1cncc(C(=O)NNC(=O)Nc2cc(Cl)cc(Cl)c2)c1`, the inhibition was inactive: -17%.

Consider `COCCCn1c(C(=O)N2CCOCC2)cc2c(=O)n3ccccc3nc21`, for which the inhibition was active: 52.1%.

Consider `CCc1ccc(S(=O)(=O)Nc2ccc(O)c3ccccc23)cc1`, for which the inhibition was inactive: -12.7%.

For `COc1ccc(C=Nc2ccc3[nH]ncc3c2)c(O)c1`, the inhibition was inactive: -4.5%.

`C[n+]1cccc2ccc3c(c21)OC(N)=C(C#N)C3c1ccccc1` (configuration not stated): the inhibition was inactive: -12.1%.

For the molecule `Cc1ccc(NC(=O)CN2C(=O)N/C(=C/c3cccn3-c3ccc(C(=O)O)cc3)C2=O)cc1`, the inhibition was inactive: 11.3%.

Turning to `Cc1ccc(N=Nc2c(N)[nH]n3c(=O)cc(C)nc23)cc1`, the inhibition is inactive: -0.85%.

`NC(N)=NS(=O)(=O)c1ccc(NC(=S)NC(=O)/C=C/c2ccco2)cc1`: the inhibition is inactive: 13.2%.

With `Oc1cccc2c(NC(=S)Nc3ccc(OC(F)F)cc3)cccc12`, the inhibition was inactive: 13.9%.

For the origin of these results see PubChem BioAssay AID2069 (Sanford-Burnham Center for Chemical Genomics, 2009).
